Assay results published in PubChem BioAssay AID1768 (National Center for Advancing Translational Sciences (NCATS), 2009).
The whole screen tested about 270,000 compounds, of which about 620 (0.23%) were called active. The inconclusive results got no clear call from the source; some entries with a clear call stand among them for comparison. Calls come from the whole dose curve; as a rule, active = well fitted inhibition curve with a large enough effect in the polarisation, with a control signal flat (not every such curve was filed as active); inconclusive = small, poorly fitted or top-dose-only effect, or effect the other way, or a change in a side signal; inactive = no such curve, though single readings can be large or run the other way; the % refers to the polarisation. Potencies beside an inconclusive call are fits to weak or partial responses and may not hold up. “Side channel” marks fits to a control or component signal instead of the main read-out.

Target: Menin (Homo sapiens) (UniProt O00255)
Experiment: qHTS Assay for Inhibitors Targeting the Menin-MLL Interaction in MLL Related Leukemias: Competition With Texas Red Labeled MLL-derived Mutant Peptide
Settings: fluorescence polarization; series mostly up to 61.6 µM
Potency is the fitted concentration of half-maximal effect; tags give direction and shape of the fitted curve or compound fluorescence and quenching.

UniProt O00255, sequence (O00255 whole entry, looked up): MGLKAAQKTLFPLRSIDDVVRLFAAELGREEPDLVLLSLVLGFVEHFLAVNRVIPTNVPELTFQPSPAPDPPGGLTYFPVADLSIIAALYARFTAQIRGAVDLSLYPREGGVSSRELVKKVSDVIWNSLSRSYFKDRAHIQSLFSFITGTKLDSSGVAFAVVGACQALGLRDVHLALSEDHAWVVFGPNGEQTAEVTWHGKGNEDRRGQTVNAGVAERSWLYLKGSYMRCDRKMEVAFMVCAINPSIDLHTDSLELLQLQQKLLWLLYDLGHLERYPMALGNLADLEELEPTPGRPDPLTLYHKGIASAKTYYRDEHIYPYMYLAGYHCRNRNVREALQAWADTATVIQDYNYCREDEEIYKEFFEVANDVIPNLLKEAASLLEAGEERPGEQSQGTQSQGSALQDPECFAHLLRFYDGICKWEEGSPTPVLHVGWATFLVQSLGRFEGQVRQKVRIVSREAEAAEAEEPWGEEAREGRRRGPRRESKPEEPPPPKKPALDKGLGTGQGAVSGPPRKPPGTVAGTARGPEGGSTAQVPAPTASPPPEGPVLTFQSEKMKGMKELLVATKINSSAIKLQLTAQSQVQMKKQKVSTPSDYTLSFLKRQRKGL

SMILES | Potency
CCOC(=O)COc1ccc2c(=O)c(-c3ccccc3OC)coc2c1 | inconclusive: 28.2 µM [inhibitor, single point]
O=C(C1=C[C@@H](C2CCCCC2)C[C@@H](OCc2ccc(CO)cc2)O1)N1CCN(Cc2ccc3c(c2)OCO3)CC1 | inconclusive: 2.24 µM [fluorescent, side channel, full curve]
CCOc1ccc2nc(Cl)c(CN(C(C)=O)C3CCCCC3)cc2c1 | inconclusive: 7.94 µM [fluorescent, side channel, partial curve]
Cn1cc(/C=C2\SC(=O)NC2=S)c2ccccc21 | inconclusive: 25.1 µM [quencher, side channel, partial curve]
Oc1cccc2ccc(/C=C/c3cccs3)nc12 | inconclusive: 31.6 µM [quencher, side channel, single point]
Cc1sc2ncnc(OCC(=O)Nc3ccc4c(c3)OCCO4)c2c1C | inconclusive: 39.8 µM [fluorescent, side channel, single point]
Cc1cccc(S(=O)(=O)N2CCCc3ccccc32)c1 | inconclusive: 2.82 µM [inhibitor, partial curve]
COCCCNC(=O)/C(C#N)=C/c1ccc(OCC(=O)O)c(OC)c1 | inactive
O=C(NCCc1ccccc1)C1CCC(CNS(=O)(=O)c2ccccc2)CC1 (stereo not given) | inconclusive: 31.6 µM [fluorescent, side channel, single point]
COc1ccc(NC(=O)Cn2nnc(-c3ccccc3NC(=O)c3ccco3)n2)cc1 | inconclusive: 11.2 µM [quencher, side channel, partial curve]
O=C(CCC(=O)c1ccc(F)cc1)Nc1cccc(S(=O)(=O)Nc2cccc(Cl)c2)c1 | inconclusive: 3.16 µM [quencher, side channel, full curve]
O=C(CCC(=O)c1cccs1)c1cccs1 | inconclusive: 22.4 µM [fluorescent, side channel, single point]
CCOc1ccc(N=C2NC(=O)C(CC(=O)Nc3ccc(OC)cc3)S2)cc1 (stereo not given) | inconclusive: 25.1 µM [fluorescent, side channel, partial curve]
COc1ccc(Nc2ncnc3sc(C)cc23)cc1 | inconclusive: 39.8 µM [quencher, side channel, single point]
CC/C(=N\NC(=O)Cc1ccc(Br)cc1)c1cccs1 | inconclusive: 0.316 µM [inhibitor, full curve, poor fit]
O=C(CN1CC(=O)Nc2ccccc21)Nc1ccc(F)c(F)c1 | inconclusive: 39.8 µM [quencher, side channel, single point]
Cc1cccc(OCc2nnc(SCC(=O)N(C(C)C)C(C)C)n2Cc2ccco2)c1C | inconclusive: 3.98 µM [fluorescent, side channel, full curve]
Cc1ccc(Nc2nc(N)c3ccccc3n2)cc1Cl | inconclusive: 15.8 µM [quencher, side channel, partial curve]
Oc1ccc2ccccc2c1C1Nc2cccc3cccc(c23)N1 | inconclusive: 25.1 µM [quencher, side channel, partial curve]
Fc1ccc(Cn2cccc2C2=NC(c3ccccc3)CO2)cc1 (stereo not given) | inactive

SMILES | Potency
O=S(=O)(NCc1ccc2c(c1)OCO2)c1cccc(S(=O)(=O)N2CCOCC2)c1 | inactive
O=C1CC(c2ccco2)CC(O)=C1C=Nc1cc(Cl)ccc1Cl (stereo not given) | inconclusive: 28.2 µM [quencher, side channel, single point]
O=C(c1noc2c1CCCC2)N1CCCCC1 | inconclusive: 39.8 µM [inhibitor, single point]
O=[N+]([O-])c1ccc2oc(C(O)c3cccc(Cl)c3)cc2c1 (stereo not given) | inconclusive: 17.8 µM [quencher, side channel, partial curve]
Cc1cc(O)c(C(=O)/C=C/c2c(F)c(F)c(F)c(F)c2F)c(=O)o1 | inconclusive: 11.2 µM [quencher, side channel, partial curve]
Cc1ccc(CN2C(=O)N/C(=C/c3ccc4c(c3)n(C)c(=O)n4C)C2=O)cc1 | inconclusive: 39.8 µM [fluorescent, single point]
Cn1c(=O)c(C(=O)NCc2ccccc2Cl)c(O)c2ccccc21 | inconclusive: 25.1 µM [inhibitor, single point]
Cc1ccc(S(=O)(=O)c2c(N)n(CCN3CCOCC3)c3nc4ccccc4nc23)cc1C | inactive
COc1ccc(Oc2c(-c3ccc(O)cc3O)n[nH]c2C)cc1 | inconclusive: 28.2 µM [quencher, side channel, single point]
CCc1ccc2c(c1)C1(NN=C(c3cccc4ccccc34)S1)C(=O)N2 (stereo not given) | inconclusive: 14.1 µM [quencher, side channel, partial curve]
COCCN(C(=O)c1csnn1)C(C(=O)NC(C)(C)C)c1cccc(OC)c1 (stereo not given) | inconclusive: 39.8 µM [inhibitor, partial curve, poor fit]
CCc1cc(=O)oc2c3c(cc(OCC(=O)NCc4ccccn4)c12)OC(C)(C)CC3 | inconclusive: 2.51 µM [inhibitor, full curve]
NC(=O)C1CC(=O)N(c2ccc(OCC(=O)Nc3cccc(C(F)(F)F)c3)cc2)C1 (stereo not given) | inconclusive: 28.2 µM [quencher, side channel, single point]
CCN(CC)CCNC(=O)c1c(C)n(-c2ccccc2)c2cc(Br)c(OC)cc12 | inconclusive: 3.55 µM [inhibitor, full curve]
O=C1CCCc2c1[nH]c1ccc(CN3CCCCC3)cc21 | inactive
COc1cc(NC(=O)CSc2nc3cc(C)ccc3cc2C)c(C(=O)O)cc1OC | inconclusive: 39.8 µM [quencher, side channel, single point]
O=C(COc1cccc(NC(=O)c2ccco2)c1)c1ccccc1 | inconclusive: 20 µM [quencher, side channel, single point]
Cc1ccc(C23CC4CC(CC(CC(=O)NC(C)(C)CO)(C4)C2)C3)cc1 | inconclusive: 5.62 µM [inhibitor, full curve]
CCSc1nnc(NC(=O)c2ccc(Br)s2)s1 | inconclusive: 39.8 µM [inhibitor, single point]
N#C/C(=C(/O)COc1ccc(Cl)cc1)c1nc2ccccc2s1 | inconclusive: 31.6 µM [quencher, side channel, single point]

SMILES | Potency
CCOc1ccc(NC(=O)c2ccccc2NS(=O)(=O)c2ccc(F)cc2)c([N+](=O)[O-])c1 | inconclusive: 31.6 µM [quencher, side channel, partial curve]
COc1ccccc1C(=O)NNC(=O)CCCN1C(=O)/C(=C/c2cccs2)SC1=S | inconclusive: 39.8 µM [fluorescent, side channel, single point]
O=c1c2cc([N+](=O)[O-])ccc2nc(CN2CCN(c3ccccn3)CC2)n1-c1ccccc1F | inactive
O=C(CCC(=O)c1ccc[nH]1)c1ccc(Cl)cc1 | inconclusive: 17.8 µM [quencher, side channel, partial curve]
O=C(CCCCCNC(=O)N1CCn2c1nc1ccccc12)NCc1ccccc1 | inconclusive: 39.8 µM [inhibitor, single point]
COc1cccc(-c2nc(N3CCNCC3)c3ccccc3n2)c1 | inactive
COc1ccc(C(CCN)c2ccc3c(c2)OCO3)cc1 (stereo not given) | inconclusive: 31.6 µM [fluorescent, side channel, partial curve]
N#C/C(=C\C1=C(N2CCOCC2)C(=C\c2ccc(Cl)cc2)/CC1)C(=O)Nc1ccccc1F | inconclusive: 15.8 µM [fluorescent, side channel, partial curve]
Cc1ccc(Cl)cc1Nc1nc(-c2sc(NC(=O)c3ccco3)nc2C)cs1 | inconclusive: 5.62 µM [quencher, side channel, partial curve]
CCOC(=O)C1CCN(Cc2nnc(-c3ccccc3C)o2)CC1 | inconclusive: 39.8 µM [inhibitor, single point]
CCOC(=O)NN1C(=O)c2ccccc2NC1c1cccnc1 (stereo not given) | inactive
COc1ccccc1Nc1nc(-c2sc(NC(=O)c3cccc(Cl)c3)nc2C)cs1 | inconclusive: 6.31 µM [quencher, side channel, partial curve]
COc1ccc(S(=O)(=O)N2CCN(C)CC2)cc1Br | inactive
O=C(CSc1ccc(Cl)cc1)NNC(=O)c1cccnc1 | inconclusive: 39.8 µM [inhibitor, single point]
O=C(Nc1ccc(F)cc1)c1cccc(C(=O)Nc2ccc(F)cc2)c1 | inconclusive: 39.8 µM [fluorescent, single point]
CC(C)(C)c1ccc(C(=O)Nc2ccc(C=C(C#N)C#N)cc2)cc1 | inconclusive: 39.8 µM [inhibitor, single point]
CCCCCCCCCCCCC[N+](C)(C)Cc1ccccc1 | inconclusive: 14.1 µM [inhibitor, partial curve]
COc1ccc(-c2n[nH]c(C(F)(F)F)c2-c2cc3ccccc3o2)c(O)c1 | inconclusive: 14.1 µM [quencher, side channel, partial curve]
COc1ccccc1NC(=S)NCCc1c[nH]c2ccccc12 | inconclusive: 39.8 µM [quencher, single point]
CCOc1ccc2ccccc2c1C1NC(=S)N(C)C(C)=C1C(=O)OC (stereo not given) | inactive
